Experimental data reported in PubChem BioAssay AID651820 (National Center for Advancing Translational Sciences (NCATS), 2012).
The campaign covered roughly 340,000 compounds. About 12,000 (3.5%) were called active. This list was built around the results that the source calls inconclusive (neither active nor inactive); the mix of calls is not that of the screen. Calls come from the whole dose curve; as a rule, active = well fitted inhibition curve with a large enough effect; inconclusive = small, poorly fitted or top-dose-only effect, or another doubt; inactive = no such curve, though single readings can be large or run the other way. Potencies of inconclusive entries are left out as doubtful fits.

Assay: qHTS Assay for Inhibitors of Hepatitis C Virus (HCV)
Settings: Huh7.5.1 HCVcc-Cre (HCVcc is cell-culture hepatitis C virus) infection, luciferase reporter, 44 h; activity change, negative = inhibition: at 41.8 µM (top of the series) unless noted
Outline: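 Reporter virus HCVcc-Cre (~0.5 moi) infects cells exposed to compound; seeding density 1,000 cells/well with 4 h settling beforehand. Luminescence, 15 sec read, taken 44 h post-infection following a 15 min RT substrate incubation.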
% is set by controls: 0 for no effect and ±100 for the full control effect; potency is the fitted concentration of half-maximal effect; tags give direction and shape of the fitted curve.

Row | SMILES | Potency | activity change, negative = inhibition
1 | CC(=O)Nc1sc2c(c1-c1nc3ccccc3s1)CCN(C(C)C)C2 | active: 8.91 µM | 
2 | C[C@]12C=CC(=O)C=C1C=C[C@@H]1C2CC[C@]2(C)C(=O)CCC12 (stereo partly specified) |  | inactive: 27.2%
3 | N#CCCN1CCN(C2=NC(=O)/C(=C\c3cccs3)S2)CC1 |  | inactive: 3.59%
4 | Cc1ccc2c(c1)/C(=C/c1ccco1)C(=O)N2 | active: 11.2 µM | 
5 | CCCc1cc(=O)[nH]c(SCC(=O)Nc2ccc(OC)c(S(=O)(=O)N3CCCCC3)c2)n1 | inconclusive [inhibitor, partial curve] | 
6 | CCOc1ccc(CCNc2nc3ccccc3n3cnnc23)cc1OCC | inconclusive [inhibitor, single point] | 
7 | COc1ccccc1C(=O)N=c1sc2c(C)ccc(OC)c2n1C | inconclusive [inhibitor, full curve, poor fit] | 
8 | OCC[C@@H]1NCc2cc(CO)cc(-c3ccccc3)c21 | inconclusive [inhibitor, partial curve] | 
9 | CCn1c(=O)c(C(=O)NC(C)C)c(O)c2ccccc21 | inconclusive [inhibitor, single point] | 
10 | Clc1ccc2[nH]c3c(NCCCN4CCOCC4)ncnc3c2c1 | inconclusive [inhibitor, partial curve] | 
11 | CC1(C)CC(N=Cc2c(O)n(Cc3ccc4c(c3)OCO4)c(=O)c3ccccc23)CC(C)(C)N1 | active: 11.2 µM | 
12 | O=C(Nc1ccc2c(c1)OCCO2)c1cc2sccc2n1Cc1ccccc1 | active: 11.2 µM | 
13 | CCOc1ccc(-c2n[nH]c(C(=O)NN)c2C)cc1 | inconclusive [inhibitor, single point] | 
14 | CCOC(=O)Cc1csc(NC(=O)C(NC(=O)C2CCC(C)CC2)C(C)C)n1 (stereo unspecified) | inconclusive [inhibitor, partial curve] | 
15 | CCN(CC)C(=O)COc1ccc(Br)cc1Cl |  | inactive: 0.561%
16 | CCCC1(C)NC(=O)c2ccccc2O1 (stereo unspecified) |  | inactive: 7.02%
17 | CC(=O)Nc1ccc(NC(=O)C(C)OC(=O)C2(c3ccccc3F)CCCC2)cc1 (stereo unspecified) | inconclusive [inhibitor, partial curve] | 
18 | CCn1c(=O)n(CC)c2cc(NC(=O)c3ccccc3Cl)ccc21 | inconclusive [inhibitor, partial curve] | 
19 | CCN1C(=O)/C(=C2/C=Cc3cc(C)ccc3N2CC)N(C)C1=S |  | inactive: 14.8%
20 | CN1CCN(S(=O)(=O)c2ccc(NC(=O)C(C)(C)C)cc2)CC1 |  | inactive: 7.28%
21 | COc1cc(C(=O)NC2CCCCC2)ccc1OC1CCN(C(C)=O)CC1 |  | inactive: 8.89%
22 | COc1cc(N=Nc2cccc(S(N)(=O)=O)c2)c2ccccc2c1N | inconclusive [inhibitor, partial curve] | 
23 | COc1ccccc1NS(=O)(=O)c1ccc(C(=O)NCC2(N(C)C)CCCCC2)cc1 |  | inactive: -13.6%

Row | SMILES | Potency | activity change, negative = inhibition
24 | COc1cccc(OC)c1C(=O)Nc1ccc2c3c(cccc13)CC2 | inconclusive [inhibitor, single point] | 
25 | NC(=O)CC(NC(=O)c1ccc(Br)cc1)c1ccc(N2CCN(c3ccc(F)cc3)CC2)c([N+](=O)[O-])c1 (stereo unspecified) | inconclusive [inhibitor, single point] | 
26 | CCC(C(=O)Nc1ccccc1Cl)n1nc(C)c2c(C)n(-c3ccccc3)nc2c1=O (stereo unspecified) | inconclusive [inhibitor, single point] | 
27 | Cc1ccc(/C=C/C(=O)Nc2nccs2)o1 |  | inactive: 14.2%
28 | CN(CC(=O)Nc1ccc(Cl)c(C(F)(F)F)c1)C(=O)c1ccc2c(c1)NC(=O)CS2 |  | inactive: 11.2%
29 | COC(=O)COc1ccc(/C=C2/NC(=O)N(CC(=O)OC)C2=O)cc1 | inconclusive [inhibitor, single point] | 
30 | CCN(CC)c1ccc(S(=O)(=O)N(CC)CC)cc1NC(=O)C1CCCC1 | inconclusive [inhibitor, single point] | 
31 | COc1ccc(CN2[C@@H](CC(=O)O)c3ccccc3S2(=O)=O)cc1 |  | inactive: 14.7%
32 | COc1ccc(-c2nnc(Nc3ccc(OC)c(C(=O)N4CCCCC4)c3)c3ccccc23)cc1 | inconclusive [inhibitor, full curve] | 
33 | CCCCn1c(-c2ccc(F)c(F)c2)nc2cc3[nH]c(=O)c(C(C)C)nc3cc21 | inconclusive [inhibitor, single point] | 
34 | CCN(CC)CCCn1c2c(c(SCC(=O)Nc3ccc(OC(F)(F)F)cc3)nc1=O)CCC2 | active: 10 µM | 
35 | COc1ccc(OC)c(N/C(C)=C/C(=O)c2ccncc2)c1 | inconclusive [inhibitor, full curve, poor fit] | 
36 | COc1cc(-c2nn3c(COc4ccccc4)nnc3s2)cc(OC)c1OC | inconclusive [inhibitor, partial curve] | 
37 | COc1cc(Cl)c(C)cc1NC(=O)CN(C)C1CCS(=O)(=O)C1 (stereo unspecified) | inconclusive [inhibitor, single point] | 
38 | O=C(CNC(=O)c1ccccc1O)N/N=C/c1cc(Br)ccc1OC(=O)/C=C/c1ccco1 | inconclusive [inhibitor, partial curve] | 
39 | Cn1c(=O)c2c(SCC(=O)Nc3ccc4c(c3)OCCO4)nc(CC(C)(C)C)nc2n(C)c1=O |  | inactive: -0.769%
40 | COc1ccc(/C=N/NC(=O)CCSc2nc3ccccc3s2)cc1OC | active: 10 µM | 
41 | O=C(OCC(=O)N1CCCC1=O)c1nc(Cl)c(Cl)c(Cl)c1Cl | inconclusive [inhibitor, single point] | 
42 | CC(C)OP(=O)(c1ccc(N(C)C)cc1)C(Nc1ccccc1)c1cccnc1 (stereo unspecified) |  | inactive: 13.9%
43 | O=C(Nc1cccc(-c2ccc(N3CCOCC3)nn2)c1)c1ccccc1 | inconclusive [inhibitor, single point] | 
44 | CC(/C=N/Nc1nc2ccccc2[nH]1)=C\c1ccccc1 | inconclusive [inhibitor, single point] | 
45 | COc1ccc(C2=CC(c3ccc(OC)c(OC)c3)c3c(c4ccccc4oc3=O)O2)cc1OC (stereo unspecified) | active: 10 µM | 
46 | COc1cc(/C=C/C(=O)Nc2ccc(OC)c(S(=O)(=O)N3CCOCC3)c2)ccc1OC(F)F | active: 0.251 µM | 
